Results: the supplement of paper PMC4967469

Compound: NC1(c2ccc(-c3nc4ccn5c(=O)[nH]nc5c4cc3-c3ccccc3)cc2)CCC1 [MK-2206]
Test: Viability of human cancer cell lines after 72 h of drug (GDSC screen)
Procedure: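 Human cancer cell lines in 384-well plates, medium with 10% serum, drug for 72 h over a 256-fold dose range (nine 2-fold or five 4-fold steps up to the top dose). Adherent lines were fixed and stained with the nucleic acid dye Syto60, suspension lines read with resazurin; signal relative to control wells, capped at 0 and 100%. One two-parameter sigmoid per drug and line, fitted in a mixed model over all curves with the slope shared within a line.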

## KNS-42 (glioma, adherent, top dose 4 µM)
  AUC: 0.983
  IC50: > 4 µM

## PF-382 (T-cell lymphoblastic leukaemia, suspension, top dose 4 µM)
  AUC: 0.864
  IC50: 2.81 µM

## NCI-H1651 (lung adenocarcinoma, adherent, top dose 4 µM)
  AUC: 0.973
  IC50: > 4 µM

## ONS-76 (medulloblastoma, adherent, top dose 4 µM)
  AUC: 0.852
  IC50: 3.48 µM

## G-361 (melanoma, adherent, top dose 4 µM)
  AUC: 0.908
  IC50: > 4 µM

## NU-DUL-1 (B-cell lymphoma, suspension, top dose 4 µM)
  AUC: 0.664
  IC50: 0.646 µM

## D-283MED (medulloblastoma, adherent, top dose 4 µM)
  AUC: 0.89
  IC50: 3.92 µM

## LC-2-ad (lung adenocarcinoma, adherent, top dose 2 µM)
  AUC: 0.952
  IC50: > 2 µM

## MOLT-16 (T-cell lymphoblastic leukaemia, suspension, top dose 4 µM)
  AUC: 0.535
  IC50: 0.306 µM

## T-T (oesophagus, adherent, top dose 4 µM)
  AUC: 0.862
  IC50: 3.39 µM

## CL-34 (large intestine, adherent, top dose 4 µM)
  AUC: 0.898
  IC50: > 4 µM

## NCI-H2052 (mesothelioma, adherent, top dose 4 µM)
  AUC: 0.983
  IC50: > 4 µM

## HCC-366 (non-small cell lung carcinoma, adherent, top dose 4 µM)
  AUC: 0.89
  IC50: > 4 µM

## ES8 (Ewing sarcoma, adherent, top dose 4 µM)
  AUC: 0.744
  IC50: 1.17 µM

## IST-MEL1 (melanoma, adherent, top dose 4 µM)
  AUC: 0.969
  IC50: > 4 µM

## D-392MG (glioma, adherent, top dose 4 µM)
  AUC: 0.969
  IC50: > 4 µM

## PANC-04-03 (pancreas, adherent, top dose 4 µM)
  AUC: 0.844
  IC50: > 4 µM

## RC-K8 (B-cell lymphoma, suspension, top dose 4 µM)
  AUC: 0.993
  IC50: > 4 µM

## NCI-H508 (large intestine, semi-adherent, top dose 4 µM)
  AUC: 0.693
  IC50: 1.27 µM

## MLMA (hairy cell leukaemia, semi-adherent, top dose 4 µM)
  AUC: 0.807
  IC50: 2.07 µM

## KP-3 (pancreas, adherent, top dose 4 µM)
  AUC: 0.896
  IC50: > 4 µM

## NCI-H1770 (non-small cell lung carcinoma, suspension, top dose 4 µM)
  AUC: 0.845
  IC50: 2.37 µM

## MM1S (myeloma, suspension, top dose 4 µM)
  AUC: 0.421
  IC50: 0.154 µM

## HT-144 (melanoma, adherent, top dose 4 µM)
  AUC: 0.925
  IC50: > 4 µM

## OVCAR-8 (ovary, adherent, top dose 4 µM)
  AUC: 0.983
  IC50: > 4 µM

## A427 (non-small cell lung carcinoma, adherent, top dose 4 µM)
  AUC: 0.955
  IC50: > 4 µM

## A431 (skin, adherent, top dose 4 µM)
  AUC: 0.891
  IC50: > 4 µM

## OV-90 (ovary, adherent, top dose 4 µM)
  AUC: 0.731
  IC50: 1.4 µM

## NCI-H1876 (small cell lung carcinoma, adherent, top dose 4 µM)
  AUC: 0.9
  IC50: > 4 µM

## NEC8 (testis, adherent, top dose 4 µM)
  AUC: 0.338

## 42-MG-BA (glioma, adherent, top dose 4 µM)
  AUC: 0.834
  IC50: 2.85 µM

## RCC-MF (kidney, adherent, top dose 4 µM)
  AUC: 0.766
  IC50: 1.91 µM

## MDA-MB-436 (breast, adherent, top dose 4 µM)
  AUC: 0.871
  IC50: > 4 µM

## LC4-1 (lymphoblastic leukaemia, suspension, top dose 4 µM)
  AUC: 0.966
  IC50: > 4 µM

## SF126 (glioma, adherent, top dose 4 µM)
  AUC: 0.753
  IC50: 1.4 µM

## SK-GT-2 (stomach, adherent, top dose 4 µM)
  AUC: 0.664
  IC50: 0.735 µM

## HCC1954 (breast, adherent, top dose 4 µM)
  AUC: 0.907
  IC50: > 4 µM

## CAL-12T (non-small cell lung carcinoma, adherent, top dose 4 µM)
  AUC: 0.928
  IC50: > 4 µM

## CHP-212 (neuroblastoma, adherent, top dose 4 µM)
  AUC: 0.754
  IC50: 1.26 µM

## LN-229 (glioma, adherent, top dose 4 µM)
  AUC: 0.985
  IC50: > 4 µM

## JEG-3 (urogenital system, adherent, top dose 4 µM)
  AUC: 0.93
  IC50: > 4 µM

## TE-4 (oesophagus, adherent, top dose 4 µM)
  AUC: 0.785
  IC50: 1.7 µM

## MOG-G-CCM (glioma, adherent, top dose 4 µM)
  AUC: 0.816
  IC50: 2.7 µM

## TE-10 (oesophagus, adherent, top dose 4 µM)
  AUC: 0.97
  IC50: > 4 µM

## SiHa (cervix, adherent, top dose 4 µM)
  AUC: 0.875
  IC50: > 4 µM

## NCI-H2087 (lung adenocarcinoma, semi-adherent, top dose 4 µM)
  AUC: 0.969
  IC50: > 4 µM

## U-87-MG (glioma, adherent, top dose 4 µM)
  AUC: 0.976
  IC50: > 4 µM

## BV-173 (chronic myeloid leukaemia, suspension, top dose 4 µM)
  AUC: 0.782
  IC50: 1.47 µM

## OVCAR-5 (ovary, adherent, top dose 4 µM)
  AUC: 0.83
  IC50: 3.23 µM

## H290 (mesothelioma, adherent, top dose 4 µM)
  AUC: 0.921
  IC50: > 4 µM

## DU-4475 (breast, suspension, top dose 4 µM)
  AUC: 0.964
  IC50: > 4 µM

## FU-OV-1 (ovary, adherent, top dose 4 µM)
  AUC: 0.913
  IC50: > 4 µM

## CAL-120 (breast, adherent, top dose 4 µM)
  AUC: 0.904
  IC50: > 4 µM

## JHU-022 (head and neck, adherent, top dose 4 µM)
  AUC: 0.877
  IC50: > 4 µM

## VAL (B-cell lymphoma, suspension, top dose 4 µM)
  AUC: 0.918
  IC50: > 4 µM

## PL4 (pancreas, adherent, top dose 4 µM)
  AUC: 0.925
  IC50: > 4 µM

## G-402 (soft tissue, adherent, top dose 4 µM)
  AUC: 0.763
  IC50: 1.92 µM

## MFH-ino (soft tissue, adherent, top dose 4 µM)
  AUC: 0.733
  IC50: 1.32 µM

## Hs939-T (melanoma, adherent, top dose 4 µM)
  AUC: 0.756
  IC50: 1.49 µM

## U-698-M (B-cell leukaemia, suspension, top dose 4 µM)
  AUC: 0.884
  IC50: > 4 µM

## EKVX (lung adenocarcinoma, adherent, top dose 4 µM)
  AUC: 0.789
  IC50: > 4 µM

Lines with a small IC50 respond at low doses; a fit beyond the top or the lowest dose is shown as a bound at that dose. AUC is the area under the same curve over the 256-fold range up to the top dose, as a fraction: 1 means no effect, lower means more sensitive.
